# Measurements as given in the supplement of paper PMC11417369.
# ± gives the standard deviation of the averaged measurements. This is one part of the list.
# System: PfAP2-G AP2 domain (GST-tagged)
# Experiment: gcPBM binding intensity (ln(normalized median fluorescence intensity)); higher = stronger DNA binding
# In short: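 An Agilent 4 × 180k array of primer-extended double-stranded 36-bp intergenic genomic probes, with negative controls, was incubated for 1 h with GST-tagged P. falciparum DNA-binding domains expressed in E. coli. Alexa488 anti-GST antibody detected bound protein, scanned at 488 nm. Binding intensity is the highest Masliner-normalised natural-log median intensity across replicate spots of either probe orientation.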
row,Sequence,gcPBM binding intensity (ln)
1,TATTTGTTTAAATTCACACACGTATATATATTTATA [CACACA_site5651],10.2 ± 0.21
2,TACGTTTTAAAACACACACACAAAAAAAAAAAAAAA [CACACA_site3876],9.97 ± 0.64
3,ATATATACATACATATGTACATATGTAGATATATTT [XGTACX_site1230],10.9 ± 0.41
4,AAAAGAGAAATGGGCACACACACACCCATTATATAT [CACACA_site1530],10.6 ± 0.33
5,AAATATTACATACACGCACACATTAAAATATTTAAA [CACACA_site5440],10.4 ± 0.18
6,ATCTAATAAAAATACACACACATATGGTTTGTGAAT [CACACA_site6962],9.775 ± 0.078
7,ATGTACCTTCAAACTACACACAAATGAAGGAACACA [CACACA_site3330],11.1 ± 0.86
8,GCGTATCATTTTAAAACACACAGGATTTTATAAGTA [CACACA_site1225],10.18 ± 0.085
9,ATGGTATAAAAAAATACACACTTATTTATATTCTTA [CACACA_site6370],9.895 ± 0.049
10,ATATAGAATGTTTACACACGCAATAAATATATATAT [CACACA_site217],10.1 ± 0.14
11,TGTAGTCTGGAGAAGAGTACACAGTATCTGGTAGCT [XGTACX_site2036],11.5 ± 0.84
12,TTAAAAAATCACAACACACACACACGCAAAAAAAAA [CACACA_site6793],10.4 ± 0.38
13,AAAAATAACATATAAACACACATATAGATTTATATA [CACACA_site7738],9.735 ± 0.078
14,CTTTTTATTTATCATACACACACAGAAAAAAAAAAA [CACACA_site7935],10.2 ± 0.35
15,ATATACAAAGGATTAACACACATATTATTATAGATA [CACACA_site6966],9.86 ± 0.13
16,AAATAAATAAATAGAGTGCATATATATATATATTTT,9.99 ± 0.25
17,AAAAAAAATAAAAATATATATATATATATATAAATA [GTGCAC_negctrl_site676],9.45 ± 0.085
18,AAGCATTTTTTTTAAAGCCTGTTCATCATCCTTACC [CACACA_negctrl_site129],10.1 ± 0.28
19,AATTTTTAGAAGAACACACACATATATATTATGACC [CACACA_site246],10.3 ± 0.25
20,ATTATGCACAGACACACACACACACTACTAAAAAAT [CACACA_site7252],10.5 ± 0.49
21,ATAGGAGAAAAAGAATGTACGTATGATGTTGAAAAT [XGTACX_site7779],11.4 ± 0.64
22,TCCTTTTTTTTTTATGCACACACAATTATACATTCC [CACACA_site9287],10.3 ± 0.26

row,Sequence,gcPBM binding intensity (ln)
1,ATAATATTTTTATGTACACACCTTAATCCTTAAAAG [CACACA_site5881],11.5 ± 0.82
2,TTAACCACTAAAAGTACACACATATATACATATATA [CACACA_site3912],11.4 ± 0.92
3,ACCGTGGGAGGACACACACACACACGCACATATATA [CACACA_site6289],11.5 ± 0.9
4,AAATAACTTTTAAATACACACGTAAAATATATTGTG [CACACA_site9085],10.39 ± 0.099
5,TACATTATAAATATTACACACTTTATAAAATAATAA [CACACA_site6096],9.89 ± 0.22
6,TCTATTAATTAATATACACACATTATATATATATAT [CACACA_site8815],10 ± 0.13
7,AATATATATATATATATATTTTTGTTAGAATATGGA [CACACA_negctrl_site212],9.61 ± 0.014
8,TCCTTAAATATAAAGGTGCTATGCAGACCTTATGTT [GTGCAC_site9472],9.93 ± 0.15
9,AAAAAAAAAAAAAACACACACACACGCAAATACATA [CACACA_site6474],10.2 ± 0.15
10,TTCCTATAAAAAAACACACACATATAAATATAAATA [CACACA_site7154],10.01 ± 0.049
11,ATATAAGTACGGCATGCATGCACATTTTTTTATTCC [TGCATGCA_site101],10.9 ± 0.5
12,TTATAAATTCAATGTACTACACAAAATGAATTTAAT [XGTACX_site6683],11.4 ± 0.82
13,TACAGACATAGACACACACACACGCATAAAAAAAAA [CACACA_site6820],10.4 ± 0.48
14,TACATAAACATTTATACACACATTATATATACATAT [CACACA_site8028],10.12 ± 0.064
15,TGTGCTCGCTATTACACACTCATTGGGATAAAATTG [CACACA_site2029],10.2 ± 0.14
16,TTTCTTTTAATTATCCGTACACAAACAATAAAATAA [XGTACX_site7841],11.4 ± 0.93
17,AAAATAATATATGTATGTACACAATTATTTATAAGT [XGTACX_site7267],11.5 ± 0.89
18,TGAATAAATAAGATACGTACACACATATACAAAATA [XGTACX_site7758],11.5 ± 0.83
19,TGGCTTATTCAGAAATGTACACATATAAATATATAT [XGTACX_site3765],11.2 ± 0.76
20,TTACAAAACCGATGTTGTACATTCAATAGATAATGT [XGTACX_site3806],11 ± 0.56
21,ATAACGTAAACAATGTGGACACATACATAAATATAT [XGTACX_site707],11.5 ± 0.88
22,TTTATTAAATAAAGCACACACAACAACTTTTCACAA [CACACA_site4132],10.3 ± 0.24

row,Sequence,gcPBM binding intensity (ln)
1,GATAACAATATGTGTACACATTTATATCTCCACATA [CACACA_site5442],11.7 ± 0.83
2,AATGTATAAAAGTTTTGTACATATTCTCACACATAT [XGTACX_site965],10.8 ± 0.51
3,ATATACCATATGCATGGTACACATTTACAACAAAAA [XGTACX_site3142],11 ± 0.52
4,TAGTTGTGAGTTACATGTACATGTATTTATTTTTTA [XGTACX_site7088],11.3 ± 0.81
5,TATATATATATATATACATGCATTTCTCATGTACAT [TGCATGCA_site621],10.8 ± 0.73
6,TATAACAAGTAATGGTGTACATTATATTATGTAATA [XGTACX_site2761],11.4 ± 0.93
7,CATATGCGTCTTGCCTTGCACACTTTTATGAAAAAA [CACACA_site2055],10.4 ± 0.26
8,TAATACTTAAAATGTTGTACATAATAATTTTATATT [XGTACX_site5403],11.4 ± 0.7
9,TATAAAAATAAGTATACACACAAAATGCGTAACTTT [CACACA_site1295],10.2 ± 0.26
10,TACATTAAACGAATAGTGCAAGAAGTATTCGTATAA [GTGCAC_site9939],10.4 ± 0.16
11,ATAAATACATTAAAATGTACATAAAAATATTACTGG [XGTACX_site1484],11.2 ± 0.67
12,GTCATCATAATCTATTGTACAAAAATTTATACAGAT [XGTACX_site1059],10.9 ± 0.57
13,AATATTATAAATGATACACACTTAAAATACAGACAC [CACACA_site8868],10.5 ± 0.31
14,AATTACTTAAATTATTGTACCCTAATGTTAATTTCA [XGTACX_site825],11.2 ± 0.62
15,TTATGTAGTATAATGAGTACTAAATATAGATATGTT [XGTACX_site6335],11 ± 0.64
16,TTAATTTTGGTAAATGCATGTAATTAAAAATAAAAA [TGCATGCA_site234],10.1 ± 0.27
17,ATATTGAAATTAAAAAAATATATGAACAAATGATGA [CACACA_negctrl_site602],9.975 ± 0.064
18,TAAATTTTTTTTTTTTGTACACAAAAATATAATATT [XGTACX_site8151],11.4 ± 0.98
19,TTTTATATCTACCTTTGTACATATTTATTTTTTTTA [XGTACX_site7872],11 ± 0.53
20,TTCATAAAAAATGTAGTGCATTGAATAAAATTACAT [GTGCAC_site9393],10.1 ± 0.18
21,TTTATAAAAAGCATAACACACACATGTCAATATATA [CACACA_site8286],10.12 ± 0.035
22,AACATACGACAATACGCACACATATAAGTACATATT [CACACA_site8584],11.5 ± 0.84

row,Sequence,gcPBM binding intensity (ln)
1,TATTTTGAAATGGAAAGGATATAGAACTTAAACAAA [CACACA_negctrl_site1530],9.87 ± 0.042
2,TTTCTTTAGTAGAATGTAAAAAATATAATCTTCTTA [TGCATGCA_negctrl_site298],9.505 ± 0.064
3,ATACATTCAAAATATACACACATATATCTATAATAT [CACACA_site6576],9.92 ± 0.028
4,ATTTAATTTTTTTTTAAACACACATTTTTTTATTTA [CACACA_site8880],9.84 ± 0.099
5,GCTTATGCTCAATATTGTACTTTTTTTATTTATTCA [XGTACX_site8863],11.3 ± 0.84
6,TACTTCTTTTTTATTTATTTTACTTTTTATTCTGTA [CACACA_negctrl_site772],9.82 ± 0.15
7,TTCAATTATATTCTTTGTACGAATCTTCTATAAATT [XGTACX_site4346],10.9 ± 0.62
8,AAAATTATTAAATATGTACACACGTACATTTTATAA [CACACA_site8750],11.6 ± 0.88
9,ATATATATATATATATGTACATATACACATGTGTGC [XGTACX_site168],11.2 ± 0.55
10,AAATAAATAATAAATAAATAAATAAAATACCAAATA [GTGCAC_negctrl_site620],9.915 ± 0.035
11,TATAAATATGTGTATACACACCTGATAAAGGTATAT [CACACA_site7283],10.1 ± 0.014
12,CACACCCACAAAAACACACACAAAGGTGTTCTTATA [CACACA_site1293],10 ± 0.13
13,ATATAAAAAGTGTATCGTACATTTACTTATTTTATA [XGTACX_site6249],10.9 ± 0.49
14,ATAAAAAAAGGACACACACACATATATATATATATA [CACACA_site5662],11.4 ± 0.95
15,ATTGAAAATTGTTGCACACATAATAATTAAATATAT [CACACA_site1857],10.1 ± 0.14
16,TGTAGTCTGGAGAAACGTACATAGTATCTGGTAACC [XGTACX_site4939],11.3 ± 0.93
17,TATTTATTTTTTTGCACACATATTTTACATTTTAAT [CACACA_site3181],10.2 ± 0.11
18,ATAACATTCATATTCACACAAAAATATACTACATAG [CACACA_site4529],9.965 ± 0.021
19,TATATATATATATATACACACATATATATATTTATA [CACACA_site627],10 ± 0.8
20,TATATTTCTTATTTCTTATTTTGTCATCACCTTTTT [CACACA_negctrl_site1115],9.82 ± 0.11
21,TTACATAATATATGTACACACGCAAATACTTATAAT [CACACA_site7995],11.5 ± 0.95
22,TATAAATATGTTCTTACACACACGAATATAAATATG [CACACA_site7537],10.19 ± 0.071
